This is one part of the list.

The subject of the assay is PfSIP2 AP2 domain 1 (GST-tagged). Briefly: gcPBM binding intensity (ln(normalized median fluorescence intensity)); higher = stronger DNA binding. A digest of the protocol: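 After 1 h on an Agilent 4 × 180k array of primer-extended double-stranded 36-bp intergenic genomic probes and negative controls, bound GST-tagged P. falciparum DNA-binding domains were detected with Alexa488 anti-GST antibody and scanned at 488 nm. The domains had been expressed in E. coli, and binding took place in 1× PBS with 1% milk, 0.2 mg/ml BSA, 0.5% salmon testes DNA and 0.03% Triton X-100. Binding intensity is the highest Masliner-normalised natural-log median intensity across replicate spots of either probe orientation.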
Regarding “TTTTTTTTTGGGTGTACACATGAATATATATTTTTT [CACACA_site5254]”, the “gcPBM binding intensity (ln)” value came to 7.83.

In the case of “AGAATTATATCATGGTGTACTTATTTGTTTATTTCT [XGTACX_site5795]”, the “gcPBM binding intensity (ln)” value turned out to be 7.17.

Take “AAAAAAAAATAAAAAAGTACAGGTAAATATATATAT [XGTACX_site5812]”: the “gcPBM binding intensity (ln)” value stood at 8.29.

Take “GAATAAATAAAAATATGTACATAAATATATATATAT [XGTACX_site8858]”: the “gcPBM binding intensity (ln)” value was determined as 9.22.

Turning to “AAAAAAAAAAAATATATATATATATATATAATATTT [GTGCAC_negctrl_site678]”, the “gcPBM binding intensity (ln)” value was 7.32.

Consider “AAGACAAATATGTATTGTACGAACGCTTTTTAATTA [XGTACX_site1961]”, for which the “gcPBM binding intensity (ln)” value came out at 7.17.

As to “ATACTTTAAAATAATACACACATGGAAAATAAAATT [CACACA_site697]”, the “gcPBM binding intensity (ln)” value turned out to be 7.17.

As to “TTTATAAAATATCTTTCACACATTACTATGTATTAT [CACACA_site5148]”, the “gcPBM binding intensity (ln)” value turned out to be 6.83.

On to “ATAAAAGTTTAATATTGTACGAACATGCGTTTCTAA [XGTACX_site1487]”, for which the “gcPBM binding intensity (ln)” value stood at 6.78.

For the sequence “TTCTTAAAAAATCAAACACACATATATATATACATA [CACACA_site2296]”, the “gcPBM binding intensity (ln)” value came out at 7.11.

With “ATAAATAGAATAAAATGTACATGTAATACATATATA [XGTACX_site5475]”, the “gcPBM binding intensity (ln)” value is 6.83.

Take “GTTTAGATAAAAGGGCGTACATCTATTTTTGACTAA [XGTACX_site7170]”: the “gcPBM binding intensity (ln)” value worked out at 6.8.

With “AAAAAAAAAAAAAAAACACACAATTGAATTATTAAG [CACACA_site2864]”, the “gcPBM binding intensity (ln)” value stood at 7.58.

For “TTTTATTATTAAACATGTACCCATATTATTGTTATG [XGTACX_site5563]”, the “gcPBM binding intensity (ln)” value was determined as 7.21.

As to “AAATAAAAAGTAAAGCGTACAAATGATCAAATAATA [XGTACX_site7898]”, the “gcPBM binding intensity (ln)” value came to 7.13.

Take “TAATCAACAAAATCTACACACTAAAATGAAATATAA [CACACA_site3749]”: the “gcPBM binding intensity (ln)” value came out at 6.72.

Take “TATAAATAGATATATACACACTTGTGCAGAATATTA [CACACA_site7112]”: the “gcPBM binding intensity (ln)” value came to 7.01.

Turning to “CCCAGGTGCTCGTAACGTACTTACATCAAATATTAT [XGTACX_site4617]”, the “gcPBM binding intensity (ln)” value came to 8.97.

Take “AGAAGTGTAAAAGTTACACACACAAACTTGTCATTT [CACACA_site4613]”: the “gcPBM binding intensity (ln)” value was determined as 6.69.

For “AGGCGTGAAATATACGTACACACATTATTTATATTT [CACACA_site2558]”, the “gcPBM binding intensity (ln)” value is 7.32.

Turning to “TAACATTACTCTTAACTCTTTTGGATACCAACTTAT [XGTACX_negctrl_site82]”, the “gcPBM binding intensity (ln)” value came to 6.86.

For the sequence “AAATATTTATAAATTGCACACAAATAATAACATTAT [CACACA_site8737]”, the “gcPBM binding intensity (ln)” value came to 7.

For “ATAATAATATATACATGTACATATATATATATATAT [XGTACX_site3455]”, the “gcPBM binding intensity (ln)” value was 9.14.

For “TTTTTTTTTTTAATATGTACGTAAAATAAGTTTAAA [XGTACX_site6495]”, the “gcPBM binding intensity (ln)” value was 7.54.

As to “TATTATATTTATTTATGTACACATATACTTAAATAA [XGTACX_site1355]”, the “gcPBM binding intensity (ln)” value amounted to 7.

As to ACACCTATAAATTAAGTGCATTTTTTTTGATGTTAT, the “gcPBM binding intensity (ln)” value was 9.15.

For the sequence “TGTAATACAGAAAAAAGTACTAAAAAGAAAAGGATT [XGTACX_site3176]”, the “gcPBM binding intensity (ln)” value came to 7.25.

Regarding “ACATTCAATCTACTGTGTACATATTAAACTTTGAAA [XGTACX_site2913]”, the “gcPBM binding intensity (ln)” value was 7.49.

As to “AAAAAATATATATCACGTGGTAATATATATATATAT [XGTACX_negctrl_site252]”, the “gcPBM binding intensity (ln)” value came out at 8.8.

On to “TACATCTGTATATAAACACACAACAAAAATGCTTAC [CACACA_site3814]”, for which the “gcPBM binding intensity (ln)” value amounted to 7.02.

In the case of “AAATTAAATCCGCACGCACACACACCGATTAATAAA [CACACA_site9321]”, the “gcPBM binding intensity (ln)” value amounted to 7.36.

Consider “AATATATAAATAGATACACACATACATACATACATA [CACACA_site4301]”, for which the “gcPBM binding intensity (ln)” value was determined as 7.1.

For “ATATATATACAACAAGCATGCAGTAATTTTTTTTTT [TGCATGCA_site728]”, the “gcPBM binding intensity (ln)” value was found to be 7.59.

Consider “CTATAATAACATAACACACACATGTATTTATAGGTG [CACACA_site6298]”, for which the “gcPBM binding intensity (ln)” value is 7.05.

With “TCCTTATAAAAATACACACAAACTTTAATTAAAACA [CACACA_site3730]”, the “gcPBM binding intensity (ln)” value is 7.04.

“TTATGAAAAAAATACTGTACACAATATGACGAAAGT [XGTACX_site2283]”: the “gcPBM binding intensity (ln)” value worked out at 7.45.

With “TTTTAAATAAATCATGCATGCACATATAATTATATT [TGCATGCA_site151]”, the “gcPBM binding intensity (ln)” value came to 8.43.

With “TATCTCATTTGGAATTGTACTAACAGATACTTGTTT [XGTACX_site2672]”, the “gcPBM binding intensity (ln)” value came to 6.71.

On to “TATACGCATATTTTTACACACATATTTTTTCATATA [CACACA_site2546]”, for which the “gcPBM binding intensity (ln)” value was determined as 7.11.

In the case of “TATATATAATATATATGTACATATGTATAATATTTA [XGTACX_site4400]”, the “gcPBM binding intensity (ln)” value was 7.32.

As to “AAATTATTGAAATACGCATGTGTTTTTTTTTTTTTT [TGCATGCA_site391]”, the “gcPBM binding intensity (ln)” value is 7.03.

For the sequence “AATATTACGTCTGGACGTACAAATCTTTTTCGTGTC [XGTACX_site6644]”, the “gcPBM binding intensity (ln)” value is 6.88.

On to “ACATTTTTTTTTTTTTTTTTTTTCTTACATCATGCA [CACACA_negctrl_site1413]”, for which the “gcPBM binding intensity (ln)” value was 7.1.

As for “ATATAAAGGTTTATTAGTACACATTAGAATACTTTT [XGTACX_site4492]”, the “gcPBM binding intensity (ln)” value amounted to 6.89.

With “TTTTACTAGATATATACACACATTATACCTATAGAT [CACACA_site7530]”, the “gcPBM binding intensity (ln)” value was 7.4.

As to “GAAATATTTTGTTGTGCATGCGACATTAAATAAAAA [TGCATGCA_site331]”, the “gcPBM binding intensity (ln)” value turned out to be 7.31.

Take “CATATTAGGACAAAGTGTACATATATATATATATAT [XGTACX_site1172]”: the “gcPBM binding intensity (ln)” value stood at 9.53.

Regarding “AATATACACATTGTGAAATAACAAAAAAGGCAAAAA [CACACA_negctrl_site1014]”, the “gcPBM binding intensity (ln)” value came out at 7.26.

With “CCTATTTATATATACACACACATATATAAATAAATA [CACACA_site2991]”, the “gcPBM binding intensity (ln)” value turned out to be 7.26.

As to “ATATATATTCATAATACACACATTCTGTAGCATTAT [CACACA_site2067]”, the “gcPBM binding intensity (ln)” value turned out to be 7.08.

As for “ATAGTATCTGGTAGCTGTACGAATGGTAGAGAGTAG [XGTACX_site2548]”, the “gcPBM binding intensity (ln)” value is 7.77.

For “AATAAAAAGATATTCTCCTTGTTCCTTTTTTTTAAA [CACACA_negctrl_site1147]”, the “gcPBM binding intensity (ln)” value is 6.64.

On to “TATATATATGTATGATGTACATATATGCATATATAT [XGTACX_site3399]”, for which the “gcPBM binding intensity (ln)” value was determined as 7.54.

“TTAATTAAATATTATACACACAAAAAAATAATTTTA [CACACA_site96]”: the “gcPBM binding intensity (ln)” value worked out at 6.88.

As to “AATCTATATTGACACACACACAAAAAAAAAAAAAAA [CACACA_site6739]”, the “gcPBM binding intensity (ln)” value turned out to be 7.02.

Take “ATTTTAACCAATTATTGTACTTGGTTATTCTTTTTT [XGTACX_site7453]”: the “gcPBM binding intensity (ln)” value is 6.76.

Take “ATATTTTTTTTCTTCACACACATGAATTATATATAA [CACACA_site3216]”: the “gcPBM binding intensity (ln)” value turned out to be 7.39.

The values above are taken from the supplement of paper PMC11417369.
